Results taken from PubChem BioAssay AID1347165 (National Center for Advancing Translational Sciences (NCATS), 2019).
Where “and” joins values, the source holds several entries; their conditions need not be identical. Equal values may be shown once. The whole screen tested about 220,000 compounds, of which about 5,700 (2.6%) were called active. This list was built around the results that the source calls inconclusive (neither active nor inactive); the mix of calls is not that of the screen. Calls follow the shape of the dose curve; as a rule, active = well fitted inhibition curve with a large enough effect; inconclusive = small, poorly fitted or top-dose-only effect; inactive = no such curve, though single readings can be large or run the other way. A potency beside an inconclusive call is a rough fit, not a confirmed value.

Molecular target: Lysine-specific demethylase 5B (Homo sapiens) (UniProt Q9UGL1)
Test: Primary screen for KDM5B Histone Demethylases FDH-coupled qHTS; also: nearly all actives have a fitted effect of over 70% in size; as to activity change, negative = inhibition: 0% is about no effect
Conditions: FDH-coupled NADH fluorescence (FDH is formaldehyde dehydrogenase); activity change, negative = inhibition: at 57.7 µM (top of the series) unless noted
Outline: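 Coupled FDH/NAD⁺ fluorescence readout. KDM5BΔAP 200 nM final; compound titration, 10 min RT preincubation; substrate mix 12.5 µM H3K4me3, 25 µM 2-OG, 50 µM Fe(II), 100 µM ascorbate, 0.25 mM NAD⁺, 0.25 U/mL FDH; ΔRFU over 30 min.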
Potency is read from the fitted curve at half-maximal effect; tags tell the direction and shape of the fitted curve.

Sequence of UniProt Q9UGL1 (Q9UGL1 whole entry, looked up): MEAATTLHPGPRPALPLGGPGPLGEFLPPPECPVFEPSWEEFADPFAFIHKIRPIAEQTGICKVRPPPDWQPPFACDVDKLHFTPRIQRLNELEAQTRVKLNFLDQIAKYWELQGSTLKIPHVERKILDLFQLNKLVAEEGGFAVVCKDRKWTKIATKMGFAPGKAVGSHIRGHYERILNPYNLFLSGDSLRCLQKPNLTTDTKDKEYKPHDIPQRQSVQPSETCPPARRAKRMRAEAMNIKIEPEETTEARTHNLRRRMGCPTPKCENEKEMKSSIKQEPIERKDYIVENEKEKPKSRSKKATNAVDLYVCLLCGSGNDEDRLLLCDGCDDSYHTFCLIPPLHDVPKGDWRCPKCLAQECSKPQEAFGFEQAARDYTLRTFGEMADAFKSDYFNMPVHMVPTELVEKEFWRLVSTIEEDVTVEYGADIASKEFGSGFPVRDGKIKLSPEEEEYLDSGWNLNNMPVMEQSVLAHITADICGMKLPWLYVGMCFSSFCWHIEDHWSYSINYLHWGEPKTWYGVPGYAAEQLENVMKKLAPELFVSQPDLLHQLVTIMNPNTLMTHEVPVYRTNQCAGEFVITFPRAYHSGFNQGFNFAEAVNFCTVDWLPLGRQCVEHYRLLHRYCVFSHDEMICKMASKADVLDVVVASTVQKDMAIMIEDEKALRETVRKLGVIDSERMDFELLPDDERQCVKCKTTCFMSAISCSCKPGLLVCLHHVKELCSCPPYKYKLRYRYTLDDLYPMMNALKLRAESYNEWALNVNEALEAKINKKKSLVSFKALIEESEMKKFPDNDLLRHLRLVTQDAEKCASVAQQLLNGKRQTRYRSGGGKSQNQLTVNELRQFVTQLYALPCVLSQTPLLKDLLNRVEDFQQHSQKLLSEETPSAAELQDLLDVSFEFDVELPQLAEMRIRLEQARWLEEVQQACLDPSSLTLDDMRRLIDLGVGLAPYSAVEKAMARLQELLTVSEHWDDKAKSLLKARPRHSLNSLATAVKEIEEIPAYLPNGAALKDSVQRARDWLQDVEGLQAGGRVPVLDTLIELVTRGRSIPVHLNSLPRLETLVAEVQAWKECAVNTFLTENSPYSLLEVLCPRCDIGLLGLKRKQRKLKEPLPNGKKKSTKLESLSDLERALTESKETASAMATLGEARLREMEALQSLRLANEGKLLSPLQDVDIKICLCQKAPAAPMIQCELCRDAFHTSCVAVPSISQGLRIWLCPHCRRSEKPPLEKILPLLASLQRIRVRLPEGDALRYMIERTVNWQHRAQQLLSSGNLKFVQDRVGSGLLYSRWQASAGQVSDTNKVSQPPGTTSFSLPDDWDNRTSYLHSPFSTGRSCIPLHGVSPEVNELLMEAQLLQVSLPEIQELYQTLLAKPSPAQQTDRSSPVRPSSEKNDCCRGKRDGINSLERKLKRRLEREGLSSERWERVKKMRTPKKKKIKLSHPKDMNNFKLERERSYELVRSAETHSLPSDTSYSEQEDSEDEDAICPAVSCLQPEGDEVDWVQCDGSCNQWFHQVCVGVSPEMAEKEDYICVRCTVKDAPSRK

Question: `Cc1cc(-c2ccc(S(=O)(=O)NCc3ccccc3Cl)s2)on1` was tested. Which Potency did it give?
Answer: inconclusive: 12.6 µM [inhibitor, partial curve, poor fit]

Question: How did the Potency turn out when `NC(=O)CO[C@@H]1CO[C@H]2[C@@H]1OC[C@@H]2NC(=O)Nc1cccc2ccccc12` was run?
Answer: active: 28.2 µM

Question: Which Potency does the source give for `Cc1cc(NC(=O)c2ccco2)c(=O)n(Cc2c(F)cccc2Cl)c1` here?
Answer: inconclusive: 39.8 µM [inhibitor, single point]

Question: `Oc1ccc(/C=C/c2nc3ccccc3s2)cc1` was tested. Which Potency did it give?
Answer: inconclusive: 25.1 µM [inhibitor, partial curve, poor fit]

Question: With `Oc1ccccc1/C=N/NC(=S)NC1CC2CCC1C2` (configuration not stated) as the molecule, how does the Potency read?
Answer: inconclusive: 28.2 µM [inhibitor, partial curve, poor fit]

Question: With `Cc1c(-c2cccc(NC(=O)Nc3ccccc3)c2)nc2ncccn12` as the molecule, how does the Potency read?
Answer: inconclusive: 35.5 µM [inhibitor, partial curve, poor fit]

Question: `Cc1c(C(=O)Nc2ccc(-c3nc4cc(Cl)ccc4o3)cc2)oc2ccccc12` was tested. Which Potency did it give?
Answer: inconclusive: 2.51 µM [inhibitor, partial curve, poor fit]

Question: For `Cc1c(Cl)cccc1NC(=O)c1cc2sccc2n1Cc1ccc(F)cc1`, which Potency is on record?
Answer: inconclusive: 28.2 µM [inhibitor, partial curve, poor fit]

Question: For `CC(C)n1nc(C(=O)N[C@@H](Cc2ccccc2)C(=O)O)c2ccccc2c1=O`, which Potency is on record?
Answer: inactive

Question: `CCc1ccc(OCC(=O)Nc2cccc3ccc(C)nc23)cc1` was tested. Which Potency did it give?
Answer: inactive

Question: Which Potency does the source give for `COc1cccc(C(=O)Nc2ccc3oc(-c4cccc(OC)c4)nc3c2)c1` here?
Answer: inconclusive: 31.6 µM [inhibitor, partial curve, poor fit]

Question: How did the Potency turn out when `CCOC(=O)CN1CCCC1c1ccc(C(=O)NCCn2ccnc2)s1` (configuration not stated) was run?
Answer: active: 28.2 µM

Question: With `CCCc1nc2nc(C)cc(Nc3c(C)cc(C)cc3C)n2n1` as the molecule, how does the Potency read?
Answer: inactive

Question: Which Potency does the source give for `Cc1ccc(C2C3=C(CC(C)(C)CC3=O)NC3=C2C(=O)c2ccccc23)cc1` (configuration not stated) here?
Answer: inconclusive: 10 µM [inhibitor, partial curve, poor fit]

Question: With `COCc1nnc(NC(=O)Cn2ccc3cc(OC)ccc32)s1` as the molecule, how does the Potency read?
Answer: inactive

Question: With `COc1nccnc1NC1CCN(C(=O)c2n[nH]c3c2CCCC3)CC1` as the molecule, how does the Potency read?
Answer: active: 31.6 µM

Question: `COc1cccc(CNC(=O)CCn2c(=O)c3cccn3c3cccnc32)c1OC` was tested. Which Potency did it give?
Answer: inconclusive: 39.8 µM [inhibitor, single point]

Question: `CN(C)C[C@@H]1CN(C2CCOCC2)C[C@H]1NC(=O)C1CC=CCC1` (some centres not stated) was tested. Which Potency did it give?
Answer: inconclusive: 35.5 µM [inhibitor, partial curve, poor fit]

Question: `COc1ccc(NC(=O)Nc2c(O)ccc3ccccc23)cc1` was tested. Which Potency did it give?
Answer: inconclusive: 17.8 µM [inhibitor, partial curve, poor fit]

Question: For `NC(=O)NCCC(=O)N1CCc2onc(-c3cccc4ccccc34)c2C1`, which Potency is on record?
Answer: active: 25.1 µM

Question: `COc1ccc(C(=O)N2CCc3ccc(C(=O)NCc4ccccc4C)cc32)cc1` was tested. Which Potency did it give?
Answer: inconclusive: 25.1 µM [inhibitor, single point]

Question: How did the Potency turn out when `COCc1nc2nc(-c3ccccc3)c(-c3ccc([S+](C)(=O)[O-])cc3)cc2n1C` was run?
Answer: active: 35.5 µM

Question: Which Potency does the source give for `O=C1Cc2c(-c3ccc(F)cc3F)n[nH]c2CN1CC1CC1` here?
Answer: inconclusive: 28.2 µM [inhibitor, partial curve, poor fit]

Question: Which activity change, negative = inhibition does the source give for `Clc1cccc(N2CCN(c3c4c(nc5nncn35)CCC4)CC2)c1` here?
Answer: inconclusive: -32.2% [inhibitor]

Question: Which Potency does the source give for `Cc1cc(-c2cc(C(=O)O)c3ccccc3n2)cc(C)c1C` here?
Answer: inconclusive: 25.1 µM [inhibitor, partial curve, poor fit]

Question: How did the Potency turn out when `COc1ccc2cc(C3CN(C(=O)CNC(=O)C(C)C)CCO3)ccc2c1` (configuration not stated) was run?
Answer: inactive

Question: For `Cn1nccc1OCc1cn2c(=O)n(C)cc(-c3ccc(O)c(F)c3)c2n1`, which Potency is on record?
Answer: inconclusive: 25.1 µM [inhibitor, partial curve, poor fit]

Question: Which Potency does the source give for `N#CC(C#N)=C1C=C(c2ccccc2)OC2=C1CCCC2` here?
Answer: inactive

Question: With `CCOc1cc(/C=N/Nc2nnc(C)n2N)ccc1OC(C)=O` as the molecule, how does the Potency read?
Answer: inconclusive: 17.8 µM [inhibitor, single point]

Question: How did the Potency turn out when `COc1cc(C)cc(C(C(=O)O)N2CCN(c3cnccn3)CC2)c1OC` (configuration not stated) was run?
Answer: active: 28.2 µM

Question: How did the Potency turn out when `Cc1ccc2nc(C)cc(=S)n2c1` was run?
Answer: inactive

Question: Which Potency does the source give for `CC(C)CCNC(=O)NC(=O)CCl` here?
Answer: inactive

Question: How did the Potency turn out when `O=Cc1ccc(Sc2ccccc2)cc1` was run?
Answer: inconclusive: 25.1 µM [inhibitor, partial curve, poor fit]

Question: How did the Potency turn out when `CC(=O)Nc1cccc(NC(=O)CCc2c(C)[nH]n(-c3ccc(F)cc3)c2=O)c1` was run?
Answer: inconclusive: 25.1 µM [inhibitor, partial curve, poor fit]

Question: For `Cc1cccc(N2CCN(C(=O)Cn3ncc4c3-c3ccccc3OC4)CC2)c1C`, which Potency is on record?
Answer: inconclusive: 50.1 µM [inhibitor, single point]

Question: Which Potency does the source give for `Cc1c(C)n2c3c(=O)[nH]c(=O)n(C)c3nc2n1CCCN(C)C` here?
Answer: inactive

Question: How did the Potency turn out when `COCCN(CCOC)C(=O)c1cc(-c2ccc(C)cc2)nc2ccccc12` was run?
Answer: inconclusive: 28.2 µM [inhibitor, partial curve, poor fit]

Question: `Cc1nc2ccccc2nc1SCC(=O)Nc1ccccc1OC(F)F` was tested. Which Potency did it give?
Answer: inactive

Question: With `Cc1ccc(C)c(C(C)NC(=O)c2cc3ccccc3oc2=O)c1` (configuration not stated) as the molecule, how does the Potency read?
Answer: inactive

Question: With `CN(CCc1ccccn1)C(=O)CCc1ccc2c(c1)CN(S(C)(=O)=O)CCO2` as the molecule, how does the Potency read?
Answer: inconclusive: 3.55 µM [inhibitor, partial curve]

Question: For `COc1ccc(CCNC(=O)c2ccc3c(c2)c(C)c(C)n3Cc2ccccc2)c(OC)c1OC`, which Potency is on record?
Answer: inconclusive: 17.8 µM [inhibitor, partial curve, poor fit]

Question: Which Potency does the source give for `Cc1cc(NS(C)(=O)=O)cc2sc(NC(=O)c3ccccc3)nc12` here?
Answer: inconclusive: 31.6 µM [inhibitor, partial curve, poor fit]

Question: For `O=C(Nc1cccnc1)c1cc(-c2ccccc2)nc2ccccc12`, which Potency is on record?
Answer: inactive

Question: Which Potency does the source give for `Cc1cccc(N2NC3(CCCCC3)NC2=S)c1C` here?
Answer: inactive

Question: With `COCc1ccccc1CNC(=O)c1cccs1` as the molecule, how does the Potency read?
Answer: inactive

Question: `Nc1ccccc1C(=O)NCCc1ccccc1` was tested. Which Potency did it give?
Answer: inconclusive: 22.4 µM [inhibitor, partial curve, poor fit]

Question: How did the Potency turn out when `CCN(CC)c1ccc(/C=N/NC(=O)CNC(=O)c2ccc3c(c2)OCCO3)cc1` was run?
Answer: inconclusive: 1.78 µM [inhibitor, partial curve, poor fit]

Question: With `COc1ccc2c(c1)c(C(C(=O)O)N1CCN(C(C)=O)CC1)cn2CC(=O)O` (configuration not stated) as the molecule, how does the Potency read?
Answer: inactive

Question: `Cc1cccc(C(=O)N(Cc2ccco2)Cc2ccccc2F)c1` was tested. Which Potency did it give?
Answer: inconclusive: 1.26 µM [inhibitor, partial curve, poor fit]

Question: For `O=C(NCC#Cc1cccc(C(F)(F)F)c1)c1ccc(=O)[nH]c1`, which Potency is on record?
Answer: inactive

Question: For `CCOC(=O)c1cnc2ccc(Cl)cc2c1NCCN(C)C`, which Potency is on record?
Answer: inconclusive: 28.2 µM [inhibitor, partial curve, poor fit]

Question: How did the Potency turn out when `CC(=O)C(Sc1nc(C)cc(C)n1)c1ccccc1` (configuration not stated) was run?
Answer: inactive

Question: How did the Potency turn out when `Cc1cc(NC(=O)N2CCC(CN3CCOCC3)CC2)ccc1Br` was run?
Answer: inactive

Question: `COc1cccc(C2C(=O)N(C3CCCCC3)CC(=O)N2Cc2ccc(Cl)cc2)c1` (configuration not stated) was tested. Which Potency did it give?
Answer: inconclusive: 44.7 µM [inhibitor, single point]

Question: `O=C(O)c1ccc(-c2ccc(/C=N/Nc3ccc([N+](=O)[O-])cc3)o2)cc1` was tested. Which Potency did it give?
Answer: inconclusive: 25.1 µM [inhibitor, single point]

Question: For `C(=C\c1ccccc1)/C1=NO[C@@H]2[C@H]3CC[C@H](C3)[C@H]12`, which Potency is on record?
Answer: inactive

Question: Which Potency does the source give for `COC(=O)c1ccccc1SCC(=O)Nc1cccc2c(=O)[nH][nH]c(=O)c12` here?
Answer: inactive

Question: `CC(C)CNc1nc(-c2ccc(S(=O)(=O)N3CCCCCC3)cc2)cs1` was tested. Which Potency did it give?
Answer: inconclusive: 14.1 µM [inhibitor, partial curve, poor fit]

Question: For `Cc1cnc(C2CC2)n1C1CCCN(C(=O)C2CCC2)C1` (configuration not stated), which Potency is on record?
Answer: inactive

Question: For `COc1ccc(C)cc1S(=O)(=O)NCC(c1ccc(N(C)C)cc1)N1CCc2ccccc21` (configuration not stated), which Potency is on record?
Answer: inconclusive: 25.1 µM [inhibitor, partial curve, poor fit]

Question: `CCc1ccc(CN2CCN(c3ccc(C(N)=O)cn3)CC2)nc1` was tested. Which Potency did it give?
Answer: inconclusive: 17.8 µM [inhibitor, partial curve, poor fit]

Question: How did the Potency turn out when `O=C1[C@@H]2C[C@@H](CN2CC2CC2)Oc2ccccc2N1Cc1ccc(OC(F)(F)F)cc1` was run?
Answer: inconclusive: 22.4 µM [inhibitor, partial curve]

Question: With `CN1CC2(CCN(Cc3ccccn3)CC2)CC1C(=O)N1CCOCC1` (configuration not stated) as the molecule, how does the Potency read?
Answer: active: 20 µM

Question: `CCOc1ccc(CCNC(=O)CCn2c(=O)c3cccn3c3cccnc32)cc1` was tested. Which Potency did it give?
Answer: inconclusive: 2.24 µM [inhibitor, full curve, poor fit]

Question: For `COc1ccccc1C(=O)Nc1cc(-c2ccc(C)cc2)no1`, which Potency is on record?
Answer: inconclusive: 31.6 µM [inhibitor, single point] and inconclusive: 39.8 µM [inhibitor, single point]

Question: For `CCCCN(C(=O)c1ccc2c(=O)n3c(nc2c1)CCCCCC3)c1ccccc1`, which Potency is on record?
Answer: inactive

Question: With `CSc1ccc(NC(=O)c2ccc(F)c(F)c2)cc1` as the molecule, how does the Potency read?
Answer: inactive

Question: `CCCC1CCC(c2ccc(C(=O)Oc3cncc(Cl)c3)cc2)CC1` (configuration not stated) was tested. Which Potency did it give?
Answer: inactive

Question: For `C[C@@]12CO[C@@H](Cc3ccccc3)O[C@@H]1CC[C@]1(C)C2CC[C@@H](O)[C@H]1CC(=O)NCc1ccco1` (some centres not stated), which Potency is on record?
Answer: inconclusive: 22.4 µM [inhibitor, single point]

Question: How did the Potency turn out when `Cc1cccnc1NC(=O)C1CC(=O)N(Cc2ccc(F)cc2)C1` (configuration not stated) was run?
Answer: inactive

Question: Which Potency does the source give for `Cc1oc(-c2ccccc2)nc1C(=O)Nc1nc(C(C)C)cs1` here?
Answer: inactive

Question: With `Cc1cc(C(=O)N2CCC3(CC(=O)NC3=O)C2)c(-c2ccccc2)o1` (configuration not stated) as the molecule, how does the Potency read?
Answer: inconclusive: 15.8 µM [inhibitor, partial curve]
